# The list shows a part of the results.
# Tests used:
# Assay in all cases: glycan array binding signal (z-score within array); higher = stronger binding
# Settings in all cases: glycan notation: IUPAC condensed, linker removed
# [1] = molecular target: GlcNAc(b1-4)GlcNAc(b1-4)GlcNAc(b1-4)GlcNAc(b1-4)GlcNAc(b1-4)GlcNAc
# In short: (§1)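 The binding signal is a Z-score computed within each array. Data were drawn from 3228 arrays in the Consortium for Functional Glycomics database, restricted to those with a known protein sequence. Scores were averaged over arrays of the same protein sequence at different concentrations or buffers, and over linkers, and negative values can be taken as non-binding.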
# [2] = molecular target: GlcNAc(b1-4)[GlcNAc(b1-6)]GalNAc
# In short: as §1
# [3] = molecular target: GlcNAc(b1-6)Gal(b1-4)GlcNAc
# In short: as §1
# [4] = molecular target: GlcNAc(b1-6)GalNAc
# In short: as §1
# [5] = molecular target: GlcNAc6S(b1-3)Gal(b1-4)GlcNAc
# In short: as §1
# [6] = molecular target: Kdn(a2-3)Gal(b1-3)GalNAc
# In short: as §1
# [7] = molecular target: Kdn(a2-3)Gal(b1-3)GlcNAc
# In short: as §1
# [8] = molecular target: Kdn(a2-3)Gal(b1-4)Glc
# In short: as §1
# [9] = molecular target: Kdn(a2-3)Gal(b1-4)GlcNAc
# In short: as §1
# [10] = molecular target: Kdn(a2-3)Gal(b1-4)[Fuc(a1-3)]GlcNAc
# In short: as §1
# [11] = molecular target: Kdn(a2-6)Gal(b1-4)GlcNAc
# In short: as §1
# [12] = molecular target: Man(a1-2)Man(a1-2)Man(a1-3)Man
# In short: as §1
# [13] = molecular target: Man(a1-2)Man(a1-2)Man(a1-6)[Man(a1-3)]Man
# In short: as §1
# [14] = molecular target: Man(a1-2)Man(a1-3)Man
# In short: as §1
# [15] = molecular target: Man(a1-2)Man(a1-3)[Man(a1-2)Man(a1-6)]Man
# In short: as §1
# [16] = molecular target: Man(a1-2)Man(a1-3)[Man(a1-2)Man(a1-6)]Man(a1-6)[Man(a1-2)Man(a1-2)Man(a1-3)]Man
# In short: as §1
# [17] = molecular target: Man(a1-2)Man(a1-3)[Man(a1-2)Man(a1-6)]Man(a1-6)[Man(a1-2)Man(a1-2)Man(a1-3)]Man(b1-4)GlcNAc(b1-4)GlcNAc
# In short: as §1
# [18] = molecular target: Man(a1-2)Man(a1-3)[Man(a1-6)]Man(a1-6)[Man(a1-2)Man(a1-3)]Man(b1-4)GlcNAc(b1-4)GlcNAc
# In short: as §1
# [19] = molecular target: Man(a1-2)Man(a1-6)[Man(a1-3)]Man(a1-6)[Man(a1-2)Man(a1-2)Man(a1-3)]Man
# In short: as §1
# [20] = molecular target: Man(a1-2)Man(a1-6)[Man(a1-3)]Man(a1-6)[Man(a1-2)Man(a1-2)Man(a1-3)]Man(b1-4)GlcNAc(b1-4)GlcNAc
# In short: as §1
# [21] = molecular target: Man(a1-3)[Man(a1-6)]Man
# In short: as §1
# [22] = molecular target: Man(a1-3)[Man(a1-6)]Man(a1-6)[Man(a1-2)Man(a1-3)]Man(b1-4)GlcNAc(b1-4)GlcNAc
# In short: as §1
# [23] = molecular target: Man(a1-3)[Man(a1-6)]Man(a1-6)[Man(a1-3)]Man
# In short: as §1
# [24] = molecular target: Man(a1-3)[Man(a1-6)]Man(a1-6)[Man(a1-3)]Man(b1-4)GlcNAc(b1-4)GlcNAc
# In short: as §1
# [25] = molecular target: Man(a1-3)[Man(a1-6)]Man(b1-4)GlcNAc(b1-4)GlcNAc
# In short: as §1
# [26] = molecular target: Man(a1-3)[Man(a1-6)]Man(b1-4)GlcNAc(b1-4)[Fuc(a1-6)]GlcNAc
# In short: as §1
# [27] = molecular target: Man(a1-6)Man
# In short: as §1
# [28] = molecular target: Man(b1-4)GlcNAc
# In short: as §1
# [29] = molecular target: MurNAc(b1-4)GlcNAc
# In short: as §1
# [30] = molecular target: Neu5Ac(a2-3)Gal
# In short: as §1
# [31] = molecular target: Neu5Ac(a2-3)Gal(b1-3)GalNAc
# In short: as §1
# [32] = molecular target: Neu5Ac(a2-3)Gal(b1-3)GalNAc(b1-3)Gal(a1-4)Gal(b1-4)Glc
# In short: as §1
# [33] = molecular target: Neu5Ac(a2-3)Gal(b1-3)GalNAc(b1-4)Gal(b1-4)Glc
# In short: as §1
# [34] = molecular target: Neu5Ac(a2-3)Gal(b1-3)GalNAc(b1-4)[Neu5Ac(a2-3)]Gal(b1-4)Glc
# In short: as §1
# [35] = molecular target: Neu5Ac(a2-3)Gal(b1-3)GalNAc(b1-4)[Neu5Ac(a2-8)Neu5Ac(a2-3)]Gal(b1-4)Glc
# In short: as §1
# [36] = molecular target: Neu5Ac(a2-3)Gal(b1-3)GalNAc6S
# In short: as §1
# [37] = molecular target: Neu5Ac(a2-3)Gal(b1-3)GlcNAc
# In short: as §1
# [38] = molecular target: Neu5Ac(a2-3)Gal(b1-3)GlcNAc(b1-2)Man
# In short: as §1
# [39] = molecular target: Neu5Ac(a2-3)Gal(b1-3)GlcNAc(b1-2)Man(a1-3)[GlcNAc(b1-4)][Neu5Ac(a2-3)Gal(b1-3)GlcNAc(b1-2)Man(a1-6)]Man(b1-4)GlcNAc(b1-4)GlcNAc
# In short: as §1
# [40] = molecular target: Neu5Ac(a2-3)Gal(b1-3)GlcNAc(b1-2)Man(a1-3)[Neu5Ac(a2-3)Gal(b1-3)GlcNAc(b1-2)Man(a1-6)]Man(b1-4)GlcNAc(b1-4)GlcNAc
# In short: as §1
# [41] = molecular target: Neu5Ac(a2-3)Gal(b1-3)GlcNAc(b1-2)[Neu5Ac(a2-3)Gal(b1-3)GlcNAc(b1-4)]Man(a1-6)[Neu5Ac(a2-3)Gal(b1-3)GlcNAc(b1-2)Man(a1-3)]Man(b1-4)GlcNAc(b1-4)GlcNAc
# In short: as §1
# [42] = molecular target: Neu5Ac(a2-3)Gal(b1-3)GlcNAc(b1-3)Gal(b1-3)GlcNAc
# In short: as §1
# [43] = molecular target: Neu5Ac(a2-3)Gal(b1-3)GlcNAc(b1-3)Gal(b1-4)GlcNAc
# In short: as §1
# [44] = molecular target: Neu5Ac(a2-3)Gal(b1-3)GlcNAc(b1-3)GalNAc
# In short: as §1
# [45] = molecular target: Neu5Ac(a2-3)Gal(b1-3)GlcNAc(b1-6)GalNAc
# In short: as §1
binder,measurement,setting,value
Mg3lysM (Mycosphaerella graminicola) (protein) APQNPPTSCSAAPQPTGTGSPGTVCGSTTFTNYTVKAGDTLGAIAKQYNSGVCDIAKVNGIDNPDYIKPDQVLSIPANCVTPDNTSCVKPVPVITNTCVLGVGSTYTVKSGDSFSAIATSFNITLASLEARNPQIPNYDLIFPGQVINTPLCPNSVCDSIGTYVIESGDIFYNLAQSNNVTVGQLESLNVNVNVTDIHPGDIIILPHNCHNITASA,glycan array binding signal (z-score),[1],13.5
same,glycan array binding signal (z-score),[2],-0.013
same,glycan array binding signal (z-score),[3],-0.11
same,glycan array binding signal (z-score),[4],0.007
same,glycan array binding signal (z-score),[5],-0.131
same,glycan array binding signal (z-score),[6],0.259
same,glycan array binding signal (z-score),[7],-0.127
same,glycan array binding signal (z-score),[8],0.018
same,glycan array binding signal (z-score),[9],0.003
same,glycan array binding signal (z-score),[10],-0.078
same,glycan array binding signal (z-score),[11],-0.066
same,glycan array binding signal (z-score),[12],-0.099
same,glycan array binding signal (z-score),[13],0.015
same,glycan array binding signal (z-score),[14],-0.104
same,glycan array binding signal (z-score),[15],-0.142
same,glycan array binding signal (z-score),[16],-0.056
same,glycan array binding signal (z-score),[17],-0.074
same,glycan array binding signal (z-score),[18],-0.165
same,glycan array binding signal (z-score),[19],-0.05
same,glycan array binding signal (z-score),[20],-0.112
same,glycan array binding signal (z-score),[21],-0.119
same,glycan array binding signal (z-score),[22],-0.02
same,glycan array binding signal (z-score),[23],-0.018
same,glycan array binding signal (z-score),[24],-0.098
same,glycan array binding signal (z-score),[25],-0.125
same,glycan array binding signal (z-score),[26],-0.074
same,glycan array binding signal (z-score),[27],0.038
same,glycan array binding signal (z-score),[28],0.12
same,glycan array binding signal (z-score),[29],-0.03
same,glycan array binding signal (z-score),[30],-0.059
same,glycan array binding signal (z-score),[31],-0.102
same,glycan array binding signal (z-score),[32],-0.102
same,glycan array binding signal (z-score),[33],0.013
same,glycan array binding signal (z-score),[34],-0.107
same,glycan array binding signal (z-score),[35],-0.087
same,glycan array binding signal (z-score),[36],-0.102
same,glycan array binding signal (z-score),[37],-0.042
same,glycan array binding signal (z-score),[38],-0.079
same,glycan array binding signal (z-score),[39],-0.062
same,glycan array binding signal (z-score),[40],-0.077
same,glycan array binding signal (z-score),[41],0.03
same,glycan array binding signal (z-score),[42],-0.107
same,glycan array binding signal (z-score),[43],-0.1
same,glycan array binding signal (z-score),[44],-0.12
same,glycan array binding signal (z-score),[45],-0.047
